# According to article PMC12040169 (PLOS Biology, 2025):
# Some of the results follow.
# Tested on: T1, C. trachomatis L2/434/Bu expressing GFP (CTL2-GFP)
# T1 construct: L2/434/Bu GFP intracellular growth in HeLa cells
# Parameters: species or system HeLa; C. trachomatis total inclusion area by high-content imaging, normalised to DMSO
# Conditions: total inclusion area; 28.5 h, 10 µM; inhibitor
# Outline: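 High-content images of fixed, Hoechst-stained infected cultures supply inclusion area and count (growth) plus nuclei number (viability), complementing bulk GFP/resorufin fluorescence. MIC determination is unchanged from the primary assay.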
row,Compound,% of control remaining
1,Cc1c(C(=O)O)sc(S(=O)(=O)N2CCN(C(=O)CCC3CCCC3)CC2)c1C(=O)O [CBK297121],72.552
2,O=C(Nc1ccccc1)c1cc2sccc2s1 [CBK057696],67.2572
3,CS(=O)(=O)Nc1cc(-c2noc([C@@H]3CCCN3Cc3ccncc3)n2)ccn1 [CBK288886],101.764
4,COc1ccc(-c2nc(NC(=O)CSc3nnc(C)s3)ns2)cc1 [CBK267290],98.6266
5,CCCc1cc(=O)oc2cc(OCC(=O)OC(C)C)c(Cl)cc12 [CBK264459],109.832
6,CCN(c1ccc(NC(=O)Cn2nc(C(=O)O)c3ccccc3c2=O)cc1)C(C)C [CBK297734],84.9254
7,O=C(N[C@H]1CO[C@H]2[C@@H]1OC[C@@H]2n1nnnc1-c1ccccc1)c1ccccc1 [CBK289482],84.4962
8,COc1ccc(O)c(C(=O)c2cnn(-c3ccc(Cl)c(C(=O)O)c3)c2)c1 [CBK297914],112.306
9,CN1C(=O)CC2(C1=O)C(=O)N(Cc1ccccc1)c1ccc(F)cc12 (stereo not drawn) [CBK075163],90.768
10,O=C1NC(=O)C(CCCCN2CCC3(CCN(C(=O)c4cc(F)c(F)cc4F)C3)C2)N1 (stereo not drawn) [CBK132147],91.2849
11,Cc1nn(-c2ccccc2)c(CN2C(=O)NC3(CCCC3)C2=O)c1C#N [CBK305572],80.6662
12,Cc1ccc(S(=O)(=O)Nc2nc3ccc(S(=O)(=O)N4CCOCC4)cc3s2)cc1 [CBK266988],119.938
13,CCOc1ccc(-c2ccnc(NCC(C)(C)CO)n2)cc1C(=O)O [CBK307530],47.6214
14,NC1=C(c2nc3ccccc3s2)C(=O)CN1CCN1CCOCC1 [CBK265946],81.957
15,O=C(O)c1cccc(NC(=S)NC(=O)c2cccnc2)c1 [CBK265739],103.833
16,COC(=O)c1c(C)[nH]c(C(=O)CSc2ncnc3scc(-c4ccccc4)c23)c1C [CBK265918],90.829
17,CCOC(=O)N1CCCC(=O)c2c(C(=O)O)cn(C)c21 [CBK005301],75.1633
18,CC(C)(C)c1ccc(-c2nc3ncccc3cc2N)cc1 [CBK067611],107.224
19,O=C(c1cc(F)cc(F)c1)N1CC[C@@H](c2ccccc2)[C@H](O)C1 [CBK283715],84.3556
20,CC1Cc2ccccc2N1C(=O)CSc1nnc(N)s1 (stereo not drawn) [CBK269530],118.842
21,Cc1ccc(O)c(NC(=O)c2nc3nc(C)cc(C(F)F)n3n2)c1 [CBK266186],108.769
22,CCNC(=O)N1CC2(CCN(Cc3ccc(OC(F)(F)F)cc3)CC2)c2ccccc21 [CBK126688],85.3922
23,O=C(COc1ccc2ccccc2c1Br)NCc1ccccn1 [CBK267361],116.306
24,O=C(COc1ccc2ccccc2c1)Nc1cc([N+](=O)[O-])ccc1F [CBK263780],103.07
25,Cc1ccc(CCC(=O)Nc2ccc(S(N)(=O)=O)cc2)o1 [CBK269031],90.9053
26,CNC(=O)C1(Cc2ccc(-c3cccc(C)c3)cc2)CCN(C(=O)CC(C)(C)C)CC1 [CBK285923],125.827

row,Compound,% of control remaining
1,CNC(=O)CN(C)C(=O)c1coc(COc2ccc3sc(C)nc3c2)n1 [CBK307571],38.7436
2,CCCC(NC(=O)Nc1ccnn1CC(C)C)c1nccn1C (stereo not drawn) [CBK307444],82.5559
3,COc1ccc(S(=O)(=O)N2CCOCC2)cc1C(=O)N1CCCC(C)C1 (stereo not drawn) [CBK305011],69.194
4,O=C(O)CN(CC(=O)O)S(=O)(=O)c1ccc(Cl)cc1 [CBK261526],90.6396
5,CCOc1ccccc1NC(=O)c1ccc(CS(=O)(=O)c2ccc(C)cc2)cc1 [CBK268572],115.866
6,COc1ccc2c(c1)c(C)c(C(=O)NC(C)Cc1ccccn1)n2C (stereo not drawn) [CBK281425],108.106
7,O=C(O)CCCC(=O)OCc1ccco1 [CBK260933],81.0397
8,CCN(CC)S(=O)(=O)c1cc(S(=O)(=O)N(CC)CC)c2cccc3c2c1NC(=O)O3 [CBK005022],82.1762
9,COCc1[nH]nc(O)c1Cc1c(Cl)cccc1Cl [CBK105305],104.508
10,CCC(CO)Nc1cncc(-c2cccc(N)c2)n1 (stereo not drawn) [CBK065278],118.068
11,COc1cccc([C@H]2CN(C(=O)c3ccccc3)[C@@H]3CCN(Cc4ccccc4)C[C@H]23)c1 [CBK285624],89.0989
12,c1ccc(CSc2ncnc3c2oc2ccccc23)cc1 [CBK287398],109.528
13,CC(NC(=O)CCc1ccncc1)c1nc2ccccc2s1 (stereo not drawn) [CBK281666],81.7864
14,CC(C)S(=O)(=O)n1ccn(-c2ccc(Oc3ccccc3)cc2)c1=O [CBK106644],89.5265
15,CC(C)n1c(=O)n(CC(=O)N2CCCCC2)c2cccnc21 [CBK283526],100.925
16,COc1ccc2[nH]cc(CCNC(=O)c3ccc(C)nc3N3CCOCC3)c2c1 [CBK106203],103.807
17,CN(CC(O)CO)C(=O)c1coc(COc2cccc(F)c2)n1 (stereo not drawn) [CBK306854],99.6374
18,COCC(=O)NC(C)c1nc2ccccc2n1Cc1ccccc1C (stereo not drawn) [CBK269885],106.604
19,COc1ccc(-c2cnc(NCC3CC3)c(C(=O)N3CCN(C)CC3)c2)cc1 [CBK076327],88.9597
20,O=C(CSc1nnc(-c2ccc(Cl)cc2Cl)[nH]1)Nc1ccc(F)cc1 [CBK267651],112.484
21,O=C(c1ccc2[nH]ccc2c1)N1CCN(CC2CCOC2)CC1 (stereo not drawn) [CBK304866],50.9733
22,FC(F)(F)c1nc2ccccc2nc1Sc1nc[nH]n1 [CBK093808],95.1732
23,CCCNc1nc(-c2ccc(C)c(C)c2)cn2ccnc12 [CBK066627],99.6063
24,CC1=C(C)CC(C(=O)Nc2ccc3c(c2)oc2ccccc23)C(C(=O)O)C1 (stereo not drawn) [CBK263533],103.009
25,CCCC(=O)c1ccc(S(=O)(=O)N2CCCN(Cc3cccc4cccnc34)CC2)cc1 [CBK062909],93.5189
26,O=C1COc2ccccc2C(=O)N[C@@H]2CCOC[C@@H]2C/C=C/C[C@H]2[C@H](CCCN2CCO)N1 [CBK292149],94.3903

row,Compound,% of control remaining
1,O=C(NCC1(c2ccccc2)CCCC1)c1ccc(=O)n(CC(=O)N2CCCCC2)c1 [CBK286082],107.235
2,Cc1noc(C)c1NC(=O)c1c(C)noc1C [CBK200305],106.134
3,O=C(c1c[nH]c2ccccc12)C(O)C(c1ccccc1)N1CCCCC1 (stereo not drawn) [CBK267799],96.0648
4,Cc1cc(C)n2nc(NC(=O)C(C)Oc3ccccc3)nc2n1 (stereo not drawn) [CBK270039],72.8197
5,Clc1ccc(COc2nccnc2OCc2cccnc2N2CCOCC2)cc1Cl [CBK161610],76.7912
6,CC1(C)CN(Cc2cccc(-c3ccccn3)c2)CCS1(=O)=O [CBK304284],73.0179
7,Cc1nn(C)c(Cl)c1S(=O)(=O)Nc1ccc2nsnc2c1 [CBK062222],113.704
8,O=C(CSc1nc2ccccc2s1)OCC(=O)c1cccc([N+](=O)[O-])c1 [CBK262361],92.022
9,COc1cccc(CN2CCC3(C2)c2[nH]c4ccccc4c2CCN3Cc2cccc(OC)c2)c1 (stereo not drawn) [CBK059468],72.6126
10,O=C(c1nccs1)C1CCN(C(=O)Cc2cccc(F)c2)CC1 [CBK284208],108.893
11,O=C(Nc1ccccc1O)c1ccc2c(c1)C(=O)N(c1ccc(Sc3ccc([N+](=O)[O-])cc3)cc1)C2=O [CBK262092],89.9847
12,CC1=C[C@@H](CNC(=O)c2cccnc2)[C@H](C(C)C)C[C@H]1CC(=O)N1CCCC1 [CBK289055],96.2677
13,COCCNC(=O)c1ccc(-c2ccccc2OC)nc1NCC1CC1 [CBK106246],87.3047
14,FC(F)(F)c1ccc(CN2CCN(c3nccnc3OCCN3CCOCC3)CC2)cc1 [CBK082890T],85.8796
15,COc1cc2c(cc1OC)C1c3ccccc3N(Cc3ccccc3)C(=O)N1CC2 (stereo not drawn) [CBK286192],86.5316
16,O=C(Cn1cc(C(=O)NC2(c3ccccc3)CCCC2)ccc1=O)NCc1ccc(F)cc1 [CBK286027],96.377
17,C[C@H](Nc1cncc(-c2ccc3c(c2)OCO3)n1)c1ccccc1 [CBK065962],136.783
18,COc1ccccc1CCCNC(=O)c1csc(C(C)=O)c1 [CBK282513],86.2942
19,Cc1ccc(N2CCCC2=O)cc1S(=O)(=O)NC1C2CCCCC21 (stereo not drawn) [CBK282840],118.223
20,O=C(NC1CCCOC1)C1CCN(Cc2ccccc2Cl)CC1 (stereo not drawn) [CBK282520],133.039
21,CCC(C)(C)c1ccc(S(=O)(=O)N2CCN(CCCC#N)CC2)cc1 [CBK063134],80.7376
22,COc1ccc(S(=O)(=O)N(C)CC(=O)Nc2ccc(S(N)(=O)=O)cc2)cc1 [CBK265922],79.3216
23,COCc1nc(CN2CCNC(=O)C2c2ccccc2C(F)(F)F)no1 (stereo not drawn) [CBK304157],45.8316
24,CCOC(=O)c1cnc(SCc2cccc([N+](=O)[O-])c2)nc1N [CBK266449],116.809
25,Cc1noc2nc(C3CCCN(C(=O)C4CC4)C3)cc(C(F)F)c12 (stereo not drawn) [CBK284608],102.752
26,c1ccc(OCCOc2nccnc2-c2ccsc2)cc1 [CBK106773],74.1886
